# Assay results: PubChem BioAssay AID624417 (National Center for Advancing Translational Sciences (NCATS), 2012)
# The whole screen tested about 410,000 compounds, of which about 6,400 (1.6%) were called active. This list was built around the results that the source calls inconclusive (neither active nor inactive); the mix of calls is not that of the screen. The call rests on the fitted dose curve; in most records, active means well fitted inhibition curve with a large enough effect; inconclusive means small, poorly fitted or top-dose-only effect; inactive means no such curve, though single readings can be large or run the other way. No potency is given beside an inconclusive call; the fits are too rough.
# Molecular target: Glucagon-like peptide 1 receptor (Homo sapiens) (UniProt P43220)
# Sequence of UniProt P43220 (P43220 whole entry, looked up): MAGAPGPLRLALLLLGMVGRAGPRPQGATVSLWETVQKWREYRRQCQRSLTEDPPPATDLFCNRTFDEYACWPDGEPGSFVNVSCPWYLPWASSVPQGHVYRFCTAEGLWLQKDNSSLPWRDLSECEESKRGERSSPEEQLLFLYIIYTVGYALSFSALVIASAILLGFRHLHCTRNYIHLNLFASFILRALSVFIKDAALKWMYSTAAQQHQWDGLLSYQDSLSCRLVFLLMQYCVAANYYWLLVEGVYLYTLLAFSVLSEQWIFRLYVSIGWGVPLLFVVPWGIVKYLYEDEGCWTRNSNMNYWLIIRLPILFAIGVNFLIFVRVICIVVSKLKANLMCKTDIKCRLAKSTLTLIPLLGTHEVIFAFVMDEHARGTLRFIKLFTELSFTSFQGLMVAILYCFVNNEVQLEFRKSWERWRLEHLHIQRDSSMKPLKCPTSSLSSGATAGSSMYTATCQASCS
# Test: qHTS of GLP-1 Receptor Inverse Agonists (Inhibition Mode); further: nearly all actives have a fitted effect of over 55% in size
# Settings: HEK293 GLP-1R CRE-luciferase, luminescence, 24 h, GLP-1R form is constitutively active; series mostly up to 38.3 µM
# Method in brief: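 Using stably transfected HEK293 (constitutively active GLP-1R, cAMP-luciferase reporter), compounds were incubated 24 hr and luciferase measured by luminescence.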
# Potency means the concentration at half of the fitted maximal effect; tags describe the fitted curve by direction and shape.
row,SMILES,Potency
1,CN(C)c1ccc(C(CNS(=O)(=O)c2ccc(F)cc2)c2c[nH]c3ccccc23)cc1 (stereo not drawn),"inconclusive [inhibitor, partial curve, poor fit]"
2,CCCNC(=O)c1cc(C2CCCCN2C(=O)OCC(C)C)on1 (stereo not drawn),"inconclusive [inhibitor, single point]"
3,NNc1ccc(Cl)nn1,active: 10 µM
4,O=C(N/N=C/c1ccccc1)c1ccc2c(c1)OCO2,"inconclusive [inhibitor, single point]"
5,O=C1CC(c2nc3ccccc3[nH]2)CN1c1cccc(Cl)c1 (stereo not drawn),inactive
6,CN1c2ccc([N+](=O)[O-])cc2N(C)C1(C)c1ccccc1 (stereo not drawn),"inconclusive [inhibitor, single point]"
7,C/C(CC(=O)Nc1ccc(Cl)cc1Cl)=N\NC(=O)c1cnccn1,"inconclusive [inhibitor, single point]"
8,CCCc1nc(SCC(=O)NCc2ccco2)c2c(=O)n(C)c(=O)n(C)c2n1,"inconclusive [inhibitor, partial curve, poor fit]"
9,O=[N+]([O-])c1cnccc1-n1nnc2ccccc21,"inconclusive [inhibitor, single point]"
10,CCc1ccc(OCc2ccc(C(=O)O)o2)cc1,active: 3.98 µM
11,O=C(c1ccc(CS(=O)(=O)Cc2ccc(Cl)cc2)o1)N1CCCC1,"inconclusive [inhibitor, single point]"
12,COc1cc2oc3ccccc3c2cc1N(CC(=O)N(C)C)S(=O)(=O)c1ccccc1,"inconclusive [inhibitor, single point]"
13,CC(C)c1ccc(NC(=O)NCc2ccc(F)cc2)cc1,"inconclusive [inhibitor, partial curve, poor fit]"
14,COc1ccc(-c2noc(N3CCC(C(=O)Nc4cc(OC)ccc4OC)CC3)n2)cc1,"inconclusive [inhibitor, single point]"
15,COc1ccc(C(CNC(=O)c2oc3ccc(Cl)cc3c2C)N2CCCCC2)cc1 (stereo not drawn),"inconclusive [inhibitor, partial curve, poor fit]"
16,CCOCCC(=O)Nc1cc(Cl)ccc1OC,"inconclusive [inhibitor, full curve, poor fit]"
17,COc1ccc(NC(=O)CN(C)C(=O)CCCc2c[nH]c3ccccc23)cc1,"inconclusive [inhibitor, partial curve, poor fit]"
18,CC(C)CCNC(=S)Nc1ccc2nc3n(c(=O)c2c1)CCCCC3,"inconclusive [inhibitor, single point]"
19,COc1ccc(OCc2cccc(C(=O)Nc3cc(C)on3)c2)cc1,"inconclusive [inhibitor, partial curve, poor fit]"
20,COc1ccc(-c2nsc(C(=O)N(c3ccc(F)cc3)C(C(=O)NC3CCCC3)c3ccc(OC)cc3)c2N)cc1 (stereo not drawn),"inconclusive [inhibitor, full curve, poor fit]"
21,S=c1nc(-c2ccccc2)[nH]c2ccccc12,inactive

row,SMILES,Potency
1,COc1ccc(-c2nn(-c3ccccc3)cc2/C=N/Nc2ccc3ccccc3n2)cc1OC,"inconclusive [inhibitor, full curve, poor fit]"
2,O=C(Nc1ccccc1)OC(CN1CCCCC1)C(F)(F)F (stereo not drawn),"inconclusive [inhibitor, single point]"
3,Cc1cc(C)c2c(CC(=O)N3CCN(c4cccc(Cl)c4)CC3)coc2c1,"inconclusive [inhibitor, single point]"
4,COc1cc(NC(=O)Nc2nc(C(N)C3CCCCC3)cs2)cc(OC)c1OC (stereo not drawn),"inconclusive [inhibitor, single point]"
5,N#Cc1ccc(OCC(=O)N/N=C2/CC(c3ccccc3)Oc3ccccc32)cc1 (stereo not drawn),inactive
6,Fc1cccc(/C=N/Nc2nncc3ccccc23)c1,"inconclusive [inhibitor, single point]"
7,Cc1cc(C)c(S(=O)(=O)N2CCCCC2CCNC(=O)C(=O)NCc2cccnc2)c(C)c1 (stereo not drawn),"inconclusive [inhibitor, partial curve]"
8,S=c1[nH]nc(COc2ccccc2)n1/N=C/c1cccc(Cl)c1Cl,inactive
9,Cc1c(O)ccc(NC(=O)/C=C/c2ccccc2)c1C,"inconclusive [inhibitor, single point]"
10,CN1CCN(CC(=O)n2c3c(c4ccccc42)CCCC3)CC1,"inconclusive [inhibitor, single point]"
11,CCc1cccc(NC(=O)Cn2c(=O)ccc3cc(S(=O)(=O)N4CCC(C)CC4)ccc32)c1,inactive
12,CC(C)(O)C#Cc1ccc(C(=O)NC2CCCCC2)s1,"inconclusive [inhibitor, partial curve, poor fit]"
13,CCOC(=O)CSc1nc(Cc2ccccc2)nc2ccccc12,"inconclusive [inhibitor, single point]"
14,CCCOc1ccc(C(O)(CCC)CCN2CCCCC2)cc1 (stereo not drawn),"inconclusive [inhibitor, single point]"
15,COc1cc(C(=O)Oc2ccc3ccc(O)cc3c2)cc(OC)c1OC,inactive
16,C[C@@H]1C(c2cccc(Cl)c2)=NN(c2ccccc2)[C@H]1C(=O)N1CCOC1=O,"inconclusive [inhibitor, single point]"
17,O=C(CNC(=O)c1cccc(F)c1)N/N=C/c1cc(Br)ccc1OC(=O)/C=C/c1ccco1,"inconclusive [inhibitor, single point]"
18,O=C(Nc1ccc(Cl)cc1)C1Cc2c(-c3ccccc3)ccnc2O1 (stereo not drawn),"inconclusive [inhibitor, single point]"
19,CCN(CC)CCCNC(=O)c1oc2ccc(S(=O)(=O)N3CC(C)CC(C)C3)cc2c1C (stereo not drawn),active: 1.41 µM
20,COC(=O)c1ccc(/C=C/c2c(-c3ccc(OC)cc3)sc3ccccc23)cc1,"inconclusive [inhibitor, single point]"
21,CCOC(=O)C1=CN(c2cccc(F)c2)C=C(C(=O)OCC)C1c1cc(OC)c(O)c([N+](=O)[O-])c1,"inconclusive [inhibitor, single point]"

row,SMILES,Potency
1,CC(=O)N1Cc2ccccc2C(C)CC12CCCC2 (stereo not drawn),"inconclusive [inhibitor, partial curve, poor fit]"
2,Cc1cc2ccccc2n1CCNC(=O)c1cccc(Br)c1,"inconclusive [inhibitor, single point]"
3,Cc1ccc(S(=O)(=O)Nc2ccc3c(c2)CCCN3C(=O)c2cccs2)cc1,"inconclusive [inhibitor, single point]"
4,C(=N\N1CCN(Cc2cccc3ccccc23)CC1)/c1cccs1,"inconclusive [inhibitor, single point]"
5,Clc1ccc(C2CC(c3ccccc3)Nc3ncnn32)cc1 (stereo not drawn),"inconclusive [inhibitor, partial curve, poor fit]"
6,CC(C)N1C(=O)N(c2cccc(Cl)c2)C(C)(O)CC1(C)C (stereo not drawn),"inconclusive [inhibitor, single point]"
7,O=C(N/N=C/C(c1ccccc1)c1ccccc1)c1ccccc1F,"inconclusive [inhibitor, single point]"
8,Cc1ccc(S(=O)(=O)Nc2ccccc2-c2ccccc2NS(=O)(=O)c2ccc(C)cc2)cc1,"inconclusive [inhibitor, partial curve, poor fit]"
9,COc1ccc(NS(=O)(=O)c2cc(NC(=O)CCSc3ccccc3)ccc2OC)cc1,"inconclusive [inhibitor, single point]"
10,CCC(=O)N1c2ccccc2CC1C(=O)NCCc1ccccc1C (stereo not drawn),inactive
11,CC(CNC(=O)COc1ccc2c(c1)OCO2)c1ccccc1 (stereo not drawn),"inconclusive [inhibitor, single point]"
12,Cc1oc(-c2ccc(Cl)cc2)nc1CN1CCC(C(=O)NCC2CCCO2)CC1 (stereo not drawn),"inconclusive [inhibitor, single point]"
13,O=C(Nc1ccc(OC(F)(F)F)cc1)C1CCCN(S(=O)(=O)c2cccnc2)C1 (stereo not drawn),"inconclusive [inhibitor, partial curve, poor fit]"
14,COc1ccccc1C(CNC(=O)c1cccc(S(=O)(=O)Nc2ccc(C)cc2)c1)N(C)C (stereo not drawn),"inconclusive [inhibitor, partial curve, poor fit]"
15,O=C(NCc1cccnc1)/C(=C/c1ccc(-c2cccc(C(F)(F)F)c2)o1)NC(=O)c1ccccc1,"inconclusive [inhibitor, partial curve, poor fit]"
16,O=C(CNCC1CCCO1)N1CCN(S(=O)(=O)c2ccc3ccccc3c2)CC1 (stereo not drawn),"inconclusive [inhibitor, single point]"
17,c1ccc2c(c1)OCC(c1csc3ncnc(N4CCCC4)c13)O2 (stereo not drawn),"inconclusive [inhibitor, single point]"
18,COc1cc(CNC(C)c2ccccc2)cc(Br)c1OCc1ccccc1 (stereo not drawn),"inconclusive [inhibitor, partial curve, poor fit]"
19,CCN(c1ccccc1)S(=O)(=O)c1ccc(NC(=O)c2cc(=O)c3cc(C)cc(C)c3o2)cc1,inactive
20,O=C(CN1CCCCCC1)NN(Cc1ccccc1)c1ccccc1,"inconclusive [inhibitor, single point]"
21,CCN1CCN(CCCNC(=O)c2ccc(/C=C3/Oc4ccccc4N(Cc4cccc(C)c4)C3=O)cc2)CC1,"inconclusive [inhibitor, full curve, poor fit]"
